15 molecules from paper PMC6218473, “Recognition of host Clr-b by the inhibitory NKR-P1B receptor provides a basis for missing-self recognition” (Nature Communications, 2018) can be followed below.

T1: Clr-b on transfected HEK293T cells (mouse) (UniProt Q91V08)
T1 sequence: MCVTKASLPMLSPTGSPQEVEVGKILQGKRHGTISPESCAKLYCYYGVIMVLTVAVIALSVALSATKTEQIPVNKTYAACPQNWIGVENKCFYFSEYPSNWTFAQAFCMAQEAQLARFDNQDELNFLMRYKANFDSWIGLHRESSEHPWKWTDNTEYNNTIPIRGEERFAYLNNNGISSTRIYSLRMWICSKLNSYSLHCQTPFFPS

B1: NKR-P1B tetramers (biotinylated NKR-P1B on streptavidin) (domain or fragment, UniProt Q99JB4 89-215)
chain: SAKLECPQDWLSHRDKCFHVSQVSNTWKECRIDCDKKGATLLLIQDQEELRFLLDSIKEKYNSFWIGLSYTLTDMNWKWINGTAFNSDVLKITGVTENGSCAAISGEKVTSEGCSSDNRWICQKELN
modifications: biotin on the BirA tag
B2: NKR-P1B N150A mutant tetramer (domain or fragment, UniProt Q99JB4 89-215)
chain: B1 chain with N62A
modifications: biotin on the BirA tag
B3: NKR-P1B S203A mutant tetramer (domain or fragment, UniProt Q99JB4 89-215)
chain: B1 chain with S115A
modifications: biotin on the BirA tag
B4: NKR-P1B D205A mutant tetramer (domain or fragment, UniProt Q99JB4 89-215)
chain: B1 chain with D117A
modifications: biotin on the BirA tag
B5: NKR-P1B E200A mutant tetramer (domain or fragment, UniProt Q99JB4 89-215)
chain: B1 chain with E112A
modifications: biotin on the BirA tag
B6: NKR-P1B T184A mutant tetramer (domain or fragment, UniProt Q99JB4 89-215)
chain: B1 chain with T96A
modifications: biotin on the BirA tag
B7: NKR-P1B S188A mutant tetramer (domain or fragment, UniProt Q99JB4 89-215)
chain: B1 chain with S100A
modifications: biotin on the BirA tag
B8: NKR-P1B V183A mutant tetramer (domain or fragment, UniProt Q99JB4 89-215)
chain: B1 chain with V95A
modifications: biotin on the BirA tag
B9: NKR-P1B Y149A mutant tetramer (domain or fragment, UniProt Q99JB4 89-215)
chain: B1 chain with Y61A
modifications: biotin on the BirA tag
B10: NKR-P1B S204R mutant tetramer (domain or fragment, UniProt Q99JB4 89-215)
chain: B1 chain with S116R
modifications: biotin on the BirA tag
B11: NKR-P1B N113A mutant tetramer (domain or fragment, UniProt Q99JB4 89-215)
chain: B1 chain with N25A
modifications: biotin on the BirA tag
B12: NKR-P1B R207A mutant tetramer (domain or fragment, UniProt Q99JB4 89-215)
chain: B1 chain with R119A
modifications: biotin on the BirA tag
B13: NKR-P1B N206A mutant tetramer (domain or fragment, UniProt Q99JB4 89-215)
chain: B1 chain with N118A
modifications: biotin on the BirA tag
B14: NKR-P1B S199A mutant tetramer (domain or fragment, UniProt Q99JB4 89-215)
chain: B1 chain with S111A
modifications: biotin on the BirA tag
B15: NKR-P1B S204A mutant tetramer (domain or fragment, UniProt Q99JB4 89-215)
chain: B1 chain with S116A
modifications: biotin on the BirA tag

Numbering of substitutions follows the chain as printed. Numbers in names are those of the source. Results are given in words; binding and its absence hold for the method and conditions named. Some binding calls cover weakened binding; strength is not graded here.

The target of this experiment is T1, Clr-b on transfected HEK293T cells (mouse). Briefly: flow cytometry on cells; PE-labelled NKR-P1B tetramers on transfected HEK293T or transduced BWZ cells; 1 h on ice in flow buffer (HBSS, 0.5% BSA, 0.03% NaN3); only the binder purified. A general note: Flow cytometry measures light scatter and fluorescence of single cells or particles in a stream.
For B1, the binding result is “binds”.
The same measure for B2: “binds”.
To B3 belongs “no binding”; to B4, “no binding”; to B5, “no binding”.
The same measure for B6: “no binding”.
In the case of B7, the binding entry is on record as “no binding”.
The same measure for B8: “binds”; for B9: “binds”; for B10: “no binding”.
To B11 belongs “binds”.
Regarding B12, the binding entry was “no binding”.
To B13 belongs “no binding”; to B14, “no binding”; to B15, “no binding”.
